In all, about 33,000 sequences were measured (“E-score (-0.5 to 0.5)”: median about -0.021, highest 2% from about 0.32 on). The list shows a part of the results.
Target: T1, Zap1 (UniProt P47043)
T1 sequence: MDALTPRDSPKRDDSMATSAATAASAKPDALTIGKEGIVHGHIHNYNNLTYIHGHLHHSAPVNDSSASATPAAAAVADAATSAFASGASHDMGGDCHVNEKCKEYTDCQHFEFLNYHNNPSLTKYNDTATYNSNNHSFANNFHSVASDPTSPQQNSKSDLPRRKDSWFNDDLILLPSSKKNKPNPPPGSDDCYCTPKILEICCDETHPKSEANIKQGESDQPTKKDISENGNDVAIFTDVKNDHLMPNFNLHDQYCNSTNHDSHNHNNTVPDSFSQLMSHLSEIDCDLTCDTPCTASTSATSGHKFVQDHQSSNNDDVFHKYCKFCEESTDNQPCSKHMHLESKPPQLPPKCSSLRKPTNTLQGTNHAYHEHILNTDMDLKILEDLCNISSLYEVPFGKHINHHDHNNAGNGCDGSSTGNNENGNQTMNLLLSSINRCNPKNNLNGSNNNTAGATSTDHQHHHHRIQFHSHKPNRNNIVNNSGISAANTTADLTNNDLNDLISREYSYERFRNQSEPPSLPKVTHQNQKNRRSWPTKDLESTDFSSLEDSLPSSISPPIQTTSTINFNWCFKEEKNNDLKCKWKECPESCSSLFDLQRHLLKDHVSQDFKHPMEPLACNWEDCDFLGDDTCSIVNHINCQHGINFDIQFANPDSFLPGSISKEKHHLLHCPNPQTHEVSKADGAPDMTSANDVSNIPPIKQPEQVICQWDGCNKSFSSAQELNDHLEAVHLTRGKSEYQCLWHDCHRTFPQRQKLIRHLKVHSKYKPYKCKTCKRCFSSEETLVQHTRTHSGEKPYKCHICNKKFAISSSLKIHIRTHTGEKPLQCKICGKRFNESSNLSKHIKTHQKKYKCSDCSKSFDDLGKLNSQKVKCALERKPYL
Experiment: PBM E-score (8-mer binding enrichment) (E-score (-0.5 to 0.5)); higher = stronger / more preferred TF binding; most listed sequences are background and not binding sites
Conditions: protein concentration: 200 nM; construct: GST-full length
Protocol: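 Universal 'all 10-mer' protein binding microarrays (Agilent AMADID 015681) probed with GST-tagged S. cerevisiae TFs (full-length or DBD) made by in vitro transcription/translation (PURExpress), about 100-200 nM. Bound TF was detected with fluorescent anti-GST. Each ungapped 8-mer (which stands for itself and its reverse complement) is scored by the PBM enrichment score (E-score), a modified Wilcoxon-Mann-Whitney statistic from -0.5 to +0.5, computed with the Universal PBM Analysis Suite. Scale: above 0.35 generally sequence-specific binding.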

Row | Sequence | PBM E-score
1 | GAACCCAA | 0.152
2 | GGATCTCA | -0.138
3 | CGTGATAC | -0.231
4 | AATGCGGC | -0.16
5 | GTATGGGA | -0.246
6 | GAGGTAGC | 0.0662
7 | AATAGTGT | 0.0982
8 | ACAAAACG | 0.133
9 | CGGTCACA | 0.163
10 | ACCGGTCC | -0.143
11 | AAGTCGTG | -0.119
12 | AGCAGACC | 0.058
13 | CCTCTGTA | -0.0834
14 | GACTAACA | 0.156
15 | GCCAACAA | 0.192
16 | GGAGGGGA | -0.0565
17 | CCAGCAAG | -0.11
18 | CACGGCCA | 0.0868
19 | CCTATGCC | -0.0867
20 | TGCGGTAA | 0.256
21 | CGGGGCAG | -0.349
22 | CCGACGAG | -0.079
23 | CTGGAGGA | -0.216
24 | CTTGAATC | -0.171
25 | CAAGATCC | -0.174

Row | Sequence | PBM E-score
26 | TCATAGCA | -0.142
27 | CACCCAAG | -0.0295
28 | GAGAACTA | -0.0397
29 | TACCCCCA | 0.054
30 | AGCCTTAC | -0.305
31 | CGTGCTGA | -0.0725
32 | AACCTAGG | 0.232
33 | AAACGACG | 0.00215
34 | GCCGGGAA | -0.233
35 | CAGCATCC | -0.128
36 | CCGAGGGC | -0.0779
37 | GATCCTGA | -0.0316
38 | CTACTACC | 0.295
39 | TGCCTTAA | -0.0666
40 | ACACGTAA | -0.226
41 | GGTTAAAA | 0.385
42 | GGGAGACC | -0.19
43 | GTGATGTA | 0.013
44 | AACCCGCC | 0.178
45 | CTCACGCC | -0.147
46 | GTACAGAA | 0.181
47 | CACACTGA | 0.00589
48 | ATATAGGG | 0.094
49 | GTCGCCCA | -0.132
50 | CTTGTCAC | -0.0304

Row | Sequence | PBM E-score
51 | CGTGGGTA | 0.116
52 | CTGAGTCC | -0.0582
53 | AGCATGAC | -0.0372
54 | AGATGTGG | 0.023
55 | AATCGATC | -0.142
56 | GCAAGTAC | -0.117
57 | AAGACAAG | -0.0435
58 | GAAAGGGC | -0.114
59 | TTCTCCAA | -0.0979
60 | CGCTAACG | -0.105
61 | GCAAGGCC | -0.117
62 | ATATCCAA | 0.127
63 | CCTAAACA | 0.0597
64 | CCGAGCGC | -0.0896
65 | TAGTCTAA | -0.0202
66 | AATTGTTC | 0.116
67 | ATCCTAGA | -0.174
68 | AGGGTACG | 0.296
69 | ACAGTAGA | 0.0781
70 | CAGTAGGG | 0.0465
71 | GGCGCGGA | -0.0798
72 | ATAGTCGG | -0.217
73 | AGTGTGAC | 0.0192
74 | ACGTCCCC | -0.107
75 | CCGAAGCC | -0.237

Row | Sequence | PBM E-score
76 | CAGTGCGA | -0.233
77 | CCGGACTC | 0.04
78 | AGCTGATG | 0.0633
79 | CAGTACAG | 0.091
80 | GCCCAACA | -0.175
81 | AATTAGTC | 0.12
82 | AATCCCCT | 0.0541
83 | CAGGCTTC | -0.169
84 | ACTGGTCA | 0.258
85 | GATTATAA | 0.237
86 | AAAGGATA | 0.215
87 | AGCGGTAC | 0.169
88 | ATTGAGAG | -0.0133
89 | AAGGGCAT | -0.0978
90 | AATCACAA | -0.0184
91 | AGTCCGAT | -0.205
92 | GTCTCAAC | -0.0462
93 | CGGCTCAC | -0.0726
94 | CGCGAGCC | 0.0842
95 | CCGGGGAA | -0.199
96 | AATGGAAA | 0.0883
97 | GCAGAGAA | 0.0366
98 | GCCGGTCC | -0.19
99 | AAGCAGAG | -0.136
100 | ACTCCTGC | -0.22

Row | Sequence | PBM E-score
101 | GCAGACCA | -0.131
102 | ATCTCGGG | 0.058
103 | GCACTTTA | 0.00491
104 | ACGCGACA | -0.084
105 | CATCTTAG | -0.0955
106 | ATCGATAG | 0.263
107 | GTTTACCA | 0.0041
108 | GTAGGGGA | -0.124
109 | ATCACCTC | 0.18
110 | AGCGTCCC | -0.0153
111 | ATGCCAAT | -0.136
112 | GAATAAAC | 0.0267
113 | ACGCGACT | -0.221
114 | ACGAGGAA | 0.0176
115 | GCGTGGTA | 0.15
116 | CCGTCGCA | -0.013
117 | CAATACGG | -0.0128
118 | CATTCGGG | 0.177
119 | AGCAAGTG | -0.101
120 | AATTTATA | 0.151
121 | CATGAAGG | 0.168
122 | ACTAGCTC | -0.137
123 | CCGTCTCA | -0.063
124 | GCGCGTCA | -0.0157
125 | ATTGGAGG | -0.161

Row | Sequence | PBM E-score
126 | CGACTACC | 0.143
127 | ATGCGACC | 0.156
128 | GCATCCAA | -0.203
129 | ATGGTTAA | 0.357
130 | CTTGTTAC | 0.118
131 | AAGGCCTT | 0.101
132 | CGCAAATA | 0.139
133 | CCCTCACC | 0.0335
134 | GCCGCCAA | -0.118
135 | GGGCGTCA | -0.0847
136 | GATTTCAC | -0.071
137 | ACGAAATC | 0.162
138 | GAACATGC | -0.277
139 | ATCAGCAC | -0.0542
140 | AATTCAAT | 0.00565
141 | AGCGATCG | 0.0228
142 | CAATCGCC | 0.0386
143 | AGTCGAAC | -0.103
144 | ACCCAATA | 0.0229
145 | AGCGCTGC | -0.264
146 | ATAACATG | -0.0351
147 | CAACACAA | 0.214
148 | CATGCGCA | -0.0197
149 | ACGCCCTG | -0.154
150 | GCGCGGCC | 0.104

Row | Sequence | PBM E-score
151 | TGGGGTAA | 0.347
152 | AATGGGCT | -0.158
153 | AACCGGAA | 0.159
154 | CCGACGCA | -0.301
155 | AAGAGGGG | -0.0326
156 | CCGCGTCG | -0.0481
157 | GCTTTAAA | -0.0466
158 | GATAATAC | 0.067
159 | ACGCAGGA | -0.0923
160 | ATACATAT | 0.233
161 | AATGTAAG | -0.0104
162 | CAGAGTGC | -0.204
163 | AGCCTCTA | -0.101
164 | CCCACCCC | 0.149
165 | ACATCTTG | -0.2
166 | AATAAACG | 0.117
167 | AGATATTC | -0.041
168 | AGGCCAAG | -0.148
169 | CATGTGTA | 0.113
170 | AGGAGCAC | -0.00984
171 | CGAATGCA | -0.144
172 | AACAGGGA | 0.044
